Out of some 110,000 compounds screened, about 40 (0.04%) were called active. This list was built around the results that the source calls inconclusive (neither active nor inactive); the mix of calls is not that of the screen. Calls follow the shape of the dose curve; as a rule, active = well fitted curve in the direction sought with a large enough effect in the signal ratio (not every such curve was filed as active); inconclusive = small, poorly fitted or top-dose-only effect, or a change in a side signal; inactive = flat fitted curve, though single readings scatter; the % refers to the signal ratio. Where the call is inconclusive, the potency comes from a doubtful curve fit.
Assay: IkB Signaling;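 as to IkBa stabilization activation: 0% = basal untreated cells and 100% = reference inhibitor full response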
Conditions: ABC-DLBCL IkBa-CBG/CBR dual luciferase ratio (green luciferase fused to IkBa over red control in OCI-Ly3 lymphoma cells), 4 h; IkBa stabilization activation: at 57.1 µM (top of the series), scaled: untreated 0%, proteasome inhibitor 100% unless noted
Procedure, shortened: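 Curves were fitted separately to fusion (green), unfused (red) and ratio luminescence, then classed by r2, magnitude and activity. Cells: OCI-Ly3, 4 h compound plus doxycycline at 37C; 10 uM MG-132 defined full response.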
For `COc1ccc(NS(=O)(=O)c2ccc(-n3cccn3)cc2)cc1OC`, the IkBa stabilization activation was inconclusive: 3.5% [signal inhibitor]. In the case of `CC(=O)[C@@]1(O)Cc2c(O)c3c(c(O)c2[C@H](O[C@H]2C[C@H](N)[C@H](O)[C@H](C)O2)C1)C(=O)c1ccccc1C3=O`, the Potency is reported as inconclusive: 5.01 µM [signal inhibitor, full curve]. With `Nc1nc2n[nH]nc2c(=O)[nH]1` the Potency was inconclusive: 1 µM [rising, full curve]. With `CC1(C)Cc2c(sc3nc(-c4cccs4)n(N)c(=O)c23)CO1` the IkBa stabilization activation was inconclusive: -3.89% [signal inhibitor]. For `O=C(Nc1ccc2nc(SCC(=O)N3CCCc4ccccc43)sc2c1)c1ccc(Cl)cc1`, the IkBa stabilization activation was inconclusive: 4.09% [signal inhibitor]. In the case of `CCCS(=O)(=O)Nc1cc(-c2cn3ccc(C)cc3n2)ccc1C`, the IkBa stabilization activation is reported as “inactive”. In the case of `Cc1ccc(-n2ncc(C(=O)NC3CCN(Cc4ccccc4)CC3)c2C2CCN(C(=O)OC(C)(C)C)CC2)cc1C`, the IkBa stabilization activation is reported as inconclusive: -0.0404% [signal inhibitor]. For `CCC(C(=O)NCCc1cc(OC)ccc1OC)n1nc(C)c2c(C)n(-c3ccccc3)nc2c1=O` (configuration not stated), the IkBa stabilization activation was inconclusive: -0.198% [signal inhibitor]. For `CC(Sc1nc(=O)cc(N)n1CCc1ccccc1)C(=O)Nc1cccc(Cl)c1` (configuration not stated), the IkBa stabilization activation was inconclusive: 7.49% [signal inhibitor]. For `COc1ccc(C(=O)Nc2nc3n(n2)C(c2ccc(Cl)cc2)C=C(c2ccccc2)N3)cc1OC` (configuration not stated), the IkBa stabilization activation was inconclusive: 1.6% [signal inhibitor]. With `Cc1ccc(C)c(CN2C(=O)c3ccccc3S(=O)c3ccc(C(=O)N4CCOCC4)cc32)c1` (configuration not stated) the IkBa stabilization activation was “inactive”. For `COc1ccccc1N1CCN(S(=O)(=O)c2c(C)sc3ncn(CC(=O)Nc4ccc(C)cc4Br)c(=O)c23)CC1`, the IkBa stabilization activation was inconclusive: -0.547% [signal inhibitor]. In the case of `CCN(CC)S(=O)(=O)c1ccc2c(c1)c(=O)c(C(=O)N1CCN(c3cccc(Cl)c3)CC1)cn2C`, the IkBa stabilization activation is reported as inconclusive: -3.16% [signal inhibitor]. For `CCc1ccc(C(=O)c2cn(CC(=O)Nc3ccc4c(c3)OCO4)c3ccc(F)cc3c2=O)cc1`, the IkBa stabilization activation was inconclusive: 1.17% [signal inhibitor]. In the case of `Clc1ccc(-n2ncc3c(NCCN4CCOCC4)ncnc32)cc1`, the IkBa stabilization activation is reported as inconclusive: 2.29% [signal inhibitor]. With `COc1ccccc1-c1nc(-c2cccc(C)c2)no1` the Potency was inconclusive: 10 µM [signal inhibitor, partial curve]. In the case of `CS(=O)(=O)c1ccc2nc(NC(=O)C3COc4ccccc4O3)sc2c1` (configuration not stated), the IkBa stabilization activation is reported as inconclusive: 1.49% [signal inhibitor].
Potency is read from the fitted curve at half-maximal effect.
